The text below walks through data of US10869844B2, “Methods for the treatment of depression” (Janssen Pharmaceutica NV, priority 2014, dated 2020).

One experiment relates to adult subjects with TRD. The note with it: after the 1st infusion (up to Day 4).
The test system of experiment [1] is adult subjects with treatment resistant depression. In kind it is in vivo, human. The note with it: ketamine subjects; Days 3 or 4, 8, 15 and 29.

For `CN[C@]1(c2ccccc2Cl)CCCCC1=O.Cl` [Esketamine, (S)-2-(2-chlorophenyl)-2-(methylamino)cyclohexanone hydrochloride], the “Reduction in MADRS total score, Val/Val vs Met carriers” value with adult subjects with TRD was “Larger reductions in MADRS total score were observed in Val/Val subjects as compared to Met carriers”.

Regarding `CNC1(c2ccccc2Cl)CCCCC1=O` (racemic) [Ketamine, ketamine], the “Remit rates, Met carriers vs Val/Val” value in experiment [1] is recorded as “remit rates were higher in Met carriers than in Val/Val subjects, except on Day 3 or Day 4”.
